# Measurements reported in article PMC9911399, “Two distinct binding modes provide the RNA-binding protein RbFox with extraordinary sequence specificity”.
# Where a chain is given by its changes, count along the chain named. The list shows a part of the results.
# B1: UCUCACA (DNA:RNA)
# RNA: GGGAGACCGGAAUUCAGAUUGUCCUCUCACAUUAAAUCCCGUCGUAGCCACCA
# DNA 1: CAATCTGAATTCCGGTCTCCC
# DNA 2: TGGTGGCTACGACGGGATT
# B2: CAGCGAC (DNA:RNA)
# RNA: B1 RNA with U25C, C26A, U27G, A29G, C30A, A31C
# DNA 1: CAATCTGAATTCCGGTCTCCC
# DNA 2: TGGTGGCTACGACGGGATT
# B3: ACGUGCU (DNA:RNA)
# RNA: B1 RNA with U25A, U27G, C28U, A29G, A31U
# DNA 1: CAATCTGAATTCCGGTCTCCC
# DNA 2: TGGTGGCTACGACGGGATT
# B4: ACUAGAU (DNA:RNA)
# RNA: B1 RNA with U25A, C28A, A29G, C30A, A31U
# DNA 1: CAATCTGAATTCCGGTCTCCC
# DNA 2: TGGTGGCTACGACGGGATT
# B5: UCACAGA (DNA:RNA)
# RNA: B1 RNA with U27A, C30G
# DNA 1: CAATCTGAATTCCGGTCTCCC
# DNA 2: TGGTGGCTACGACGGGATT
# B6: GAGGCCA (DNA:RNA)
# RNA: B1 RNA with U25G, C26A, U27G, C28G, A29C
# DNA 1: CAATCTGAATTCCGGTCTCCC
# DNA 2: TGGTGGCTACGACGGGATT
# B7: UUGCAGA (DNA:RNA)
# RNA: B1 RNA with C26U, U27G, C30G
# DNA 1: CAATCTGAATTCCGGTCTCCC
# DNA 2: TGGTGGCTACGACGGGATT
# B8: UACCUGG (DNA:RNA)
# RNA: B1 RNA with C26A, U27C, A29U, C30G, A31G
# DNA 1: CAATCTGAATTCCGGTCTCCC
# DNA 2: TGGTGGCTACGACGGGATT
# B9: CUAUGGG (DNA:RNA)
# RNA: GGGAGACCGGAAUUCAGAUUGUCCCUAUGGGUUAAAUCCCGUCGUAGCCACCA
# DNA 1: CAATCTGAATTCCGGTCTCCC
# DNA 2: TGGTGGCTACGACGGGATT
# B10: GUAACAC (DNA:RNA)
# RNA: B9 RNA with C25G, U28A, G29C, G30A, G31C
# DNA 1: CAATCTGAATTCCGGTCTCCC
# DNA 2: TGGTGGCTACGACGGGATT
# B11: AACGUUA (DNA:RNA)
# RNA: B1 RNA with U25A, C26A, U27C, C28G, A29U, C30U
# DNA 1: CAATCTGAATTCCGGTCTCCC
# DNA 2: TGGTGGCTACGACGGGATT
# B12: AUAGCGC (DNA:RNA)
# RNA: B9 RNA with C25A, U28G, G29C, G31C
# DNA 1: CAATCTGAATTCCGGTCTCCC
# DNA 2: TGGTGGCTACGACGGGATT
# B13: UAGAAGC (DNA:RNA)
# RNA: B1 RNA with C26A, U27G, C28A, C30G, A31C
# DNA 1: CAATCTGAATTCCGGTCTCCC
# DNA 2: TGGTGGCTACGACGGGATT
# B14: CUAGCAA (DNA:RNA)
# RNA: B9 RNA with U28G, G29C, G30A, G31A
# DNA 1: CAATCTGAATTCCGGTCTCCC
# DNA 2: TGGTGGCTACGACGGGATT
# B15: CUGCACC (DNA:RNA)
# RNA: B1 RNA with U25C, C26U, U27G, A31C
# DNA 1: CAATCTGAATTCCGGTCTCCC
# DNA 2: TGGTGGCTACGACGGGATT
# B16: AGCUAAC (DNA:RNA)
# RNA: B9 RNA with C25A, U26G, A27C, G29A, G30A, G31C
# DNA 1: CAATCTGAATTCCGGTCTCCC
# DNA 2: TGGTGGCTACGACGGGATT
# B17: UGCUUAU (DNA:RNA)
# RNA: B9 RNA with C25U, U26G, A27C, G29U, G30A, G31U
# DNA 1: CAATCTGAATTCCGGTCTCCC
# DNA 2: TGGTGGCTACGACGGGATT
# B18: UGUAUAA (DNA:RNA)
# RNA: B1 RNA with C26G, C28A, A29U, C30A
# DNA 1: CAATCTGAATTCCGGTCTCCC
# DNA 2: TGGTGGCTACGACGGGATT
# B19: CGUAUCG (DNA:RNA)
# RNA: B9 RNA with U26G, A27U, U28A, G29U, G30C
# DNA 1: CAATCTGAATTCCGGTCTCCC
# DNA 2: TGGTGGCTACGACGGGATT
# B20: CGGUGGC (DNA:RNA)
# RNA: B9 RNA with U26G, A27G, G31C
# DNA 1: CAATCTGAATTCCGGTCTCCC
# DNA 2: TGGTGGCTACGACGGGATT
# B21: GUUAAUU (DNA:RNA)
# RNA: B1 RNA with U25G, C26U, C28A, C30U, A31U
# DNA 1: CAATCTGAATTCCGGTCTCCC
# DNA 2: TGGTGGCTACGACGGGATT
# B22: ACACGCA (DNA:RNA)
# RNA: B1 RNA with U25A, U27A, A29G
# DNA 1: CAATCTGAATTCCGGTCTCCC
# DNA 2: TGGTGGCTACGACGGGATT
# B23: AUGGGAA (DNA:RNA)
# RNA: B9 RNA with C25A, A27G, U28G, G30A, G31A
# DNA 1: CAATCTGAATTCCGGTCTCCC
# DNA 2: TGGTGGCTACGACGGGATT
# B24: UAAUGUG (DNA:RNA)
# RNA: B9 RNA with C25U, U26A, G30U
# DNA 1: CAATCTGAATTCCGGTCTCCC
# DNA 2: TGGTGGCTACGACGGGATT
# B25: GCCGAGG (DNA:RNA)
# RNA: B9 RNA with C25G, U26C, A27C, U28G, G29A
# DNA 1: CAATCTGAATTCCGGTCTCCC
# DNA 2: TGGTGGCTACGACGGGATT
# B26: CACUUGG (DNA:RNA)
# RNA: B9 RNA with U26A, A27C, G29U
# DNA 1: CAATCTGAATTCCGGTCTCCC
# DNA 2: TGGTGGCTACGACGGGATT
# B27: GAUUCUG (DNA:RNA)
# RNA: B9 RNA with C25G, U26A, A27U, G29C, G30U
# DNA 1: CAATCTGAATTCCGGTCTCCC
# DNA 2: TGGTGGCTACGACGGGATT
# B28: AUAAGGG (DNA:RNA)
# RNA: B9 RNA with C25A, U28A
# DNA 1: CAATCTGAATTCCGGTCTCCC
# DNA 2: TGGTGGCTACGACGGGATT
# B29: UGUCUUC (DNA:RNA)
# RNA: B1 RNA with C26G, A29U, C30U, A31C
# DNA 1: CAATCTGAATTCCGGTCTCCC
# DNA 2: TGGTGGCTACGACGGGATT
# B30: ACAUUCA (DNA:RNA)
# RNA: B1 RNA with U25A, U27A, C28U, A29U
# DNA 1: CAATCTGAATTCCGGTCTCCC
# DNA 2: TGGTGGCTACGACGGGATT
# B31: UGUAGCU (DNA:RNA)
# RNA: B1 RNA with C26G, C28A, A29G, A31U
# DNA 1: CAATCTGAATTCCGGTCTCCC
# DNA 2: TGGTGGCTACGACGGGATT
# Target: T1, RBFOX1 RRM RbFoxmut (Fox-RRM*) (Homo sapiens, UniProt Q9NWB1 109-208, R118D;E147R;N151S;E152T)
# T1 sequence: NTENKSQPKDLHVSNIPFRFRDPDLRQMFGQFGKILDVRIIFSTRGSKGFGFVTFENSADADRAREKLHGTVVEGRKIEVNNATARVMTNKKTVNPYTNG
# Test: EMSA; HiTS-Eq, 1 nM pool, 10 min; buffer printed only for the single-RNA assays: 10 mM Tris pH 7.5, 150 mM NaCl, 3.4 mM EDTA, 0.001% NP-40, 30 C
# Conditions: tags: His6 N-terminal (pET28a); label: 5' 32P
# In short: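 Purified wild-type or mutant RbFox RRM at increasing concentrations was equilibrated with 1 nM of 5′-radiolabelled RNA carrying 7 randomized nucleotides for 10 min in 50 µL. Unbound RNA was separated by 8% native PAGE and sequenced. Relative association constants came from read-count changes of each RNA species compared with the control reaction, normalised to the cognate motif.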
row,Binder,binding signal
1,B1,0.122 KA relative to UGCAUGU
2,B2,0.0583 KA relative to UGCAUGU
3,B3,0.122 KA relative to UGCAUGU
4,B4,0.0791 KA relative to UGCAUGU
5,B5,0.0706 KA relative to UGCAUGU
6,B6,0.091 KA relative to UGCAUGU
7,B7,0.108 KA relative to UGCAUGU
8,B8,0.0892 KA relative to UGCAUGU
9,B9,0.0576 KA relative to UGCAUGU
10,B10,0.0896 KA relative to UGCAUGU
11,B11,0.132 KA relative to UGCAUGU
12,B12,0.0951 KA relative to UGCAUGU
13,B13,0.0722 KA relative to UGCAUGU
14,B14,0.0728 KA relative to UGCAUGU
15,B15,0.141 KA relative to UGCAUGU
16,B16,0.0854 KA relative to UGCAUGU

row,Binder,binding signal
1,B17,0.128 KA relative to UGCAUGU
2,B18,0.0646 KA relative to UGCAUGU
3,B19,0.263 KA relative to UGCAUGU
4,B20,0.0931 KA relative to UGCAUGU
5,B21,0.0844 KA relative to UGCAUGU
6,B22,0.148 KA relative to UGCAUGU
7,B23,0.122 KA relative to UGCAUGU
8,B24,0.0788 KA relative to UGCAUGU
9,B25,0.0802 KA relative to UGCAUGU
10,B26,0.1 KA relative to UGCAUGU
11,B27,0.126 KA relative to UGCAUGU
12,B28,0.0543 KA relative to UGCAUGU
13,B29,0.201 KA relative to UGCAUGU
14,B30,0.0972 KA relative to UGCAUGU
15,B31,0.102 KA relative to UGCAUGU
